Laboratory results from PubChem BioAssay.
This list was built around the results that the source calls inconclusive (neither active nor inactive); the mix of calls is not that of the screen. Active and inactive are the calls of the source.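 The calls were made as follows: active = cell viability at or below a set limit in both duplicate runs, the limit being the all-compound median minus 4 SD (cut at about 23% in these data, passing the limit was not always enough); inconclusive = no clear call, values can overlap the other calls; inactive = the rest.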

test: viability of HCT116 without oncogenic beta-catenin – human colon tumor cells, pilot screen (AID 823); conditions: HCT116 beta-catenin knockout viability, CellTiter-Glo, 60 h; at 10 µM; stronger effect = lower value;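 also: 0% = wells killed by 20 µM Hyamine and 100% = untreated DMSO cell wells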

Row | Structure (SMILES) | viability
1 | O=C1c2ccccc2N2C(=O)c3ccccc3C2N1Cc1ccco1 (stereo unspecified) | inconclusive: 94.7%
2 | CCCn1c(C(C)NC(=O)c2ccccc2)nc2ccccc21 (stereo unspecified) | inconclusive: 94.3%
3 | Cc1cc(C)n2nc(SCC#N)nc2n1 | inactive: 95.4%
4 | CC(=O)c1c(C(C)=O)c(C)n(-c2nc(-c3ccccc3)c(C)s2)c1C | inconclusive: 102%
5 | CCOC(=O)C1CCN(S(=O)(=O)c2cc(Br)cc3c2N(C(=O)C2CC2)CC3)CC1 | inconclusive: 92.3%
6 | Cc1noc(C)c1C(=O)NCCCc1ccccc1 | inconclusive: 93.5%
7 | CCOC(=O)C1CCN(C(=O)c2oc3ccc(S(=O)(=O)N4CC(C)CC(C)C4)cc3c2C)CC1 (stereo unspecified) | inconclusive: 54.5%
8 | Cc1cc(OCCCCCNCCO)ccc1Cl | inconclusive: 71.1%
9 | Cc1ccsc1C(=O)OCC(=O)c1cc2ccccc2o1 | inconclusive: 109%
10 | CCOc1c(Br)cc(C(N)=O)cc1OC | inconclusive: 105%
11 | CCN(CC)c1ccc(CNC23CN4CN(CN(C4)C2)C3)cc1 | inconclusive: 103%
12 | O=C(Nc1ccc(S(=O)(=O)N2CCOCC2)cc1)C1COc2ccccc2O1 (stereo unspecified) | inconclusive: 108%
13 | O=C1C(=O)N(CCCn2ccnc2)C(c2cccnc2)/C1=C(/O)c1ccc(Br)cc1 (stereo unspecified) | inconclusive: 105%
14 | C/C(=C1/SC(=S)N(CCC(=O)O)C1=O)c1ccc(O)cc1 | inconclusive: 117%
15 | O=C(CCCC(=O)N1CCCc2ccccc21)N1CCCc2ccccc21 | inconclusive: 88.6%
16 | Cc1c(C#N)c2ccccc2n1CC(=O)N1CCc2ccccc2C1 | inactive: 92.9%
